# Measured values from publication PMC4336329 (PLoS ONE, 2015).
# Screen size: about 310,000 compounds; about 14,000 (4.5%) showed an effect of 50% or more. The effect is printed as a negative number. The list shows a part of the results.
# Biological target: human ether-à-go-go-related gene (hERG) potassium channel (human, UniProt Q12809)
# Assay: primary screen, population patch clamp on CHO cells stably expressing hERG
# 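Also: peak tail current of the secondary pulse compared with the same well before compound.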
# Sequence of human ether-à-go-go-related gene (hERG) potassium channel (Q12809 whole entry, looked up): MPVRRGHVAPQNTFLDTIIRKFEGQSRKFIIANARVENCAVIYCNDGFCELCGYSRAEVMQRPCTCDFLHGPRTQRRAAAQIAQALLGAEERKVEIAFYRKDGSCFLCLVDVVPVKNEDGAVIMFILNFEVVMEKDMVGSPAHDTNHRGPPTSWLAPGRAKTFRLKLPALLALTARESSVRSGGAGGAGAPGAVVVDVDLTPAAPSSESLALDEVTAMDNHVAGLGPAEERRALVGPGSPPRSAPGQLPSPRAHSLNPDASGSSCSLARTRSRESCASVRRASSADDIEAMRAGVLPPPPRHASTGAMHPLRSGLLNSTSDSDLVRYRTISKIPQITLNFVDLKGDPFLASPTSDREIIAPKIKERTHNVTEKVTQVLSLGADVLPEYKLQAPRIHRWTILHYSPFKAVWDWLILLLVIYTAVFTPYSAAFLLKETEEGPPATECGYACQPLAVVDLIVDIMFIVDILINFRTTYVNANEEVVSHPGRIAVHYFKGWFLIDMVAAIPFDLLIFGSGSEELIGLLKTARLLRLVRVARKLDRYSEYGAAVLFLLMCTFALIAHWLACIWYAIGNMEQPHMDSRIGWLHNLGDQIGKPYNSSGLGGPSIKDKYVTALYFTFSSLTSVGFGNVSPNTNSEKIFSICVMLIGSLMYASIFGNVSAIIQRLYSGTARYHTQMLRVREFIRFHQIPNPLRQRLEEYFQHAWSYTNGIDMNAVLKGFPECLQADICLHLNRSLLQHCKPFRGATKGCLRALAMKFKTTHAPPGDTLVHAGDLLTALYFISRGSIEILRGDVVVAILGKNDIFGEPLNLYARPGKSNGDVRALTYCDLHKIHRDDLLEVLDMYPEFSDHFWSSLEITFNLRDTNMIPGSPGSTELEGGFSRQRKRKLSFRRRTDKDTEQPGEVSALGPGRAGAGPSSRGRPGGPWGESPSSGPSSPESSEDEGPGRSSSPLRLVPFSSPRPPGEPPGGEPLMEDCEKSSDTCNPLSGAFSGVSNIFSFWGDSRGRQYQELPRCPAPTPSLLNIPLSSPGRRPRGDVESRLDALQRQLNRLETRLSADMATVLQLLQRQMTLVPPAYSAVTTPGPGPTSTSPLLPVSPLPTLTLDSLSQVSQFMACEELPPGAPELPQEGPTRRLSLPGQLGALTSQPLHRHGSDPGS
row,Compound,"hERG current change (%, negative = inhibition) at 10uM"
1,C=CCNc1nnc(SC2CC(=O)N(c3ccc(OCCC)cc3)C2=O)s1 (centres unmarked),-3.86%
2,Cn1cc(S(=O)(=O)N2CCOCC2)cc1C(=O)Nc1cccc(Cl)c1,-10.4%
3,Cc1ccc(-n2ncc3c(=O)n(CC(=O)N4CCN(c5ccccc5)CC4)cnc32)cc1C,-2.49%
4,COc1ccc(-c2nc(-c3ccccc3)c(-c3cc([N+](=O)[O-])ccc3C)[nH]2)cc1OC,11.6%
5,CN(C)C(=O)N1CCC(C(=O)N2CCCC(C(=O)c3cccc4ccccc34)C2)CC1 (centres unmarked),-33.8%
6,O=C(O)CC/C(=N\Nc1ccccc1[N+](=O)[O-])c1cccs1,-2.88%
7,Cc1ccsc1C(=O)NNC(=O)COc1ccccc1Cl,16.9%
8,CC(NC(=O)NC12CC3CC(CC(C3)C1)C2)C1CCCO1 (centres unmarked),1.07%
9,Cc1cc2nc(-c3cc(N4CCOCC4)ccc3[N+](=O)[O-])ccn2n1,-35.3%
10,CCOC(=O)/C(C#N)=C1/C=CNC(=O)N1,0.932%
11,C=C(C)C1CC=C(C)/C(=N/NC(=O)CNc2ccc(C)cc2C)C1 (centres unmarked),26.4%
12,C[C@@]12CCC3[C@@](CCC4[C@@]3(C)CCC[C@@]4(C)C(=O)Nc3ccc(Cl)cc3)(CC1=O)C2 (some centres unmarked),-1.89%
13,O=C(Nc1nccs1)c1ccc(NC(=O)C2CC=CCC2C(=O)O)cc1 (centres unmarked),25.3%
14,Cc1ccc(N(C(=O)c2sc(C)nc2C)C(C(=O)NCc2ccco2)c2ccccc2)cc1 (centres unmarked),-15%
15,Clc1ccc2oc(-c3ccccn3)nc2c1,-0.352%
16,COc1ccc(NC(=O)c2cccc(N3C(=O)C4CCC(C)CC4C3=O)c2)c(OC)c1 (centres unmarked),-3.5%
17,CCC(C)c1ccccc1N=Cc1ccc2c(c1)OCO2 (centres unmarked),11%
18,O=C1OC(/C(=C\Nc2ccccc2)[N+](=O)[O-])c2ccccc21 (centres unmarked),9.96%
19,Cl.NC1=NCc2ccccc21,-16%
20,CCN1CCN(C(=O)c2ccc(OC3CCN(CCc4ccccc4)CC3)cc2)[C@@H](C)C1=O,-10.2%
21,CCc1sc(N2C(=O)C3C4CCC(C4=C(C)C)C3C2=O)nc1-c1ccccc1 (centres unmarked),-0.909%
22,Cc1csc(NC(=O)CN(C)S(=O)(=O)c2cccc3cccnc23)n1,-18.9%

row,Compound,"hERG current change (%, negative = inhibition) at 10uM"
1,C[C@@H]1CCC[C@@]2(O[C@H](CCO)C[C@@H](O)[C@@H]2O)O1,8.68%
2,Cc1csc(=Nc2ccccc2)n1CCCN1CCCC1=O,3.99%
3,COc1ccccc1NC(=S)NC1CC2CCC1C2 (centres unmarked),5.49%
4,CC(=O)Oc1ccc(/C=N/NC(=O)C2CCCN2S(=O)(=O)c2ccc(Cl)cc2)cc1 (centres unmarked),-28.1%
5,Cc1ccc(C(=O)Nc2ccc(NC(=O)c3cccs3)cc2)c(C)c1,25.3%
6,CCOc1ccc(N2C(=O)CSC2c2ccncc2)cc1 (centres unmarked),20.6%
7,CCOC(=O)N1CCN(C(=O)c2cn(C)c3ccc(S(=O)(=O)N(CC)CC)cc3c2=O)CC1,17.1%
8,COc1ccc(OC)c2sc(NC(=O)c3ccc(Br)s3)nc12,23.1%
9,COc1cc(C)nc(OCCNC(=O)COc2ccc(Cl)cc2Cl)n1,-20.3%
10,Cc1ccc(C)c(NC(=S)N(Cc2ccc(Cl)cc2)Cc2ccc(C(=O)O)cc2)c1,8.17%
11,CCOc1ccccc1-n1c(SCC(=O)N2CCOCC2)nnc1-c1ccccn1,-6.7%
12,COc1ccc(N(CC(=O)Nc2ccc(Cc3ccncc3)cc2)S(=O)(=O)c2ccccc2)cc1,8.23%
13,Cc1cccc(NC(=O)Cn2nnc(-c3cccs3)n2)c1C,-1.21%
14,COC(=O)C1N[C@@H]([C@@H](NC(=O)COc2ccccc2)C(=O)NC2CC2)SC1(C)C (some centres unmarked),0.352%
15,O=C(CN1/C(=C(/O)c2ccccc2)C(=O)c2ccccc2S1(=O)=O)c1ccccc1,2.85%
16,COc1ccc(OC)c(Nc2c3ccccc3nc3ccccc23)c1,-11%
17,O=C(O)/C=C/c1ccc(S(=O)(=O)Nc2ccc(OCc3ccccc3)cc2)cc1,24.1%
18,Cc1onc(-c2ccccc2)c1C(=O)N1CCN(Cc2ccc3c(c2)OCO3)CC1.Cl,17.5%
19,COC(=O)C1=C(N)Oc2c(oc(CO)cc2=O)C1c1ccc(F)cc1 (centres unmarked),-7.85%
20,COc1cccc2cc3c(=O)n(-c4ccccc4)nc-3oc12,1.89%
21,Cc1cccc(NC(=O)c2cc3ccccc3oc2=O)c1,13.9%
22,CCc1cc(Cn2nc(-c3ccccc3)cc2C(=O)NCc2ccc(C)cc2)on1,-4.24%

row,Compound,"hERG current change (%, negative = inhibition) at 10uM"
1,COc1ccc(NC(=O)/C(C#N)=C/c2c(C)nn(-c3ccc(F)cc3)c2Cl)cc1Cl,4.3%
2,Cc1ccccc1C1NC(=O)Cc2ccccc21 (centres unmarked),7.19%
3,COc1ccc(CC(=O)NNC(=O)c2ccco2)cc1OC,16.4%
4,Cc1cc(N2CCCCCC2)nc2ccccc12.O=C(O)C(=O)O,-56.1%
5,CCc1ccc(CCC(=O)Nc2nnc(C)s2)o1,-5.3%
6,O=C(CSCc1ccccc1F)NCc1ccc(F)cc1,-13.5%
7,Cl.O=S(=O)(c1cccc2cnccc12)N1CCNCC1,16.4%
8,N#C/C(=C\c1c(N2CCOCC2)nc2ccccn2c1=O)C(=O)NC1CCS(=O)(=O)C1 (centres unmarked),-1.88%
9,CC1CN(c2cnn(C(C)C)c(=O)c2Cl)CC(C)O1 (centres unmarked),6.84%
10,COc1ccc2[nH]c(C)c(C(=O)CN3CCc4cc(OC)c(OC)cc4C3)c2c1,-24.9%
11,O=C(NCC1CCN(Cc2ccccc2F)CC1)Nc1ccccc1F,-22.5%
12,CCOc1ccc(NC(=O)c2sc(NC(C)=O)c(C(=O)OC)c2C)cc1,54.6%
13,CCCn1c(=O)c(Cc2ccccc2)c(O)c2ccccc21,1.06%
14,COCCCNCCCOc1ccc(C)cc1Br.O=C(O)C(=O)O,-30.7%
15,Cc1cccc(NC(=O)c2c(O)c3ccccc3n(C)c2=O)c1,25.8%
16,Cc1ccnc(NS(=O)(=O)c2ccc(NC(=O)c3ccc(S(=O)(=O)N4CCOCC4)cc3)cc2)n1,3.35%
17,COc1ccc([C@H]2CC(=O)C=C(c3ccccc3-c3ccccc3)C2)cc1,1.83%
18,O=C(CS(=O)(=O)c1cn(Cc2ccccc2Cl)c2ccccc12)N1CCOCC1,2.64%
19,CCOC(=O)N1CCN(C(=O)CN(c2ccccc2OC)S(=O)(=O)c2ccc(OC)cc2)CC1,-3.12%
20,Cc1cc(/C=C2/C(=N)N3C(=NC2=O)SN=C3S(C)(=O)=O)c(C)n1-c1ccccc1F,45.2%
21,Cc1cc(C)c2c(n1)sc1c(N3CCN(C)CC3)ncnc12,-1.14%
22,COc1nccnc1NS(=O)(=O)c1ccc(NC(=S)NC(=O)c2cccc(F)c2)cc1,5.05%

row,Compound,"hERG current change (%, negative = inhibition) at 10uM"
1,CCC[N+](CC#Cc1ccccc1)(CCC)CC(=O)OC,9.58%
2,CCCC(=O)Nc1nnc(-c2ccc3c(c2)OCCO3)o1,-1.33%
3,Cc1ccc(NC(=O)/C(=C/c2cccc([N+](=O)[O-])c2)NC(=O)C2CCCCC2)c(C)c1,-18.7%
4,O=C(NCc1ccccc1F)c1ccc2c(c1)OCCO2,10.3%
5,COc1cccc(CN(C)C(=O)c2ccc(N3CCCC3)c([N+](=O)[O-])c2)c1,-45.3%
6,COc1cccc(C(=O)N2CCN(C3CCN(Cc4ccccc4)CC3)CC2)c1OC.O=C(O)C(=O)O,-19.1%
7,Cc1nc2oc3c(NCC4CCCO4)ncnc3c2c2c1COC(C)(C)C2 (centres unmarked),-16.6%
8,CC1N(C(=O)N(C)C)CCN1S(=O)(=O)c1ccccc1 (centres unmarked),10.2%
9,Cc1cccc(NC(=O)C2CC(=O)OC23CCCC3)c1 (centres unmarked),14%
10,COc1ccc(N2CCN(C(=O)c3ccccc3Br)CC2)c([N+](=O)[O-])c1,-65.5%
11,CC(C)CC(=O)NC(=S)Nc1ccc(CN2CCOCC2)cc1,-3.57%
12,Cc1ccc2nc(NC(=O)CC3Oc4ccccc4NC3=O)sc2c1 (centres unmarked),10.5%
13,C=CCn1c(SCc2nc3ccccc3c(=O)[nH]2)nc2ccccc2c1=O,-4.3%
14,COc1ccc(CNC/C=C/c2ccccc2)cc1.Cl,-42.2%
15,O=C(Nc1ccc(Cl)cc1Cl)c1ccc2c(=O)n3c(nc2c1)CCC3,-39.8%
16,O=c1ccc(/C=C/c2ccccc2)nn1Cc1ccc(F)cc1,11.4%
17,N#Cc1cnn(-c2nc(SCc3ccccc3)nc3sc4c(c23)CCCC4)c1N,-0.501%
18,COc1ccc(C(=O)NNC2=C(C(=O)C(F)(F)F)CCC2)cc1,14.5%
19,CCOC(=O)C1CCN(c2c(NCCCN3CCCCC3)c(=O)c2=O)CC1,6.88%
20,CCN(CC(=O)Nc1ccc2c(c1)OCCO2)C(=O)c1ccc(C(F)(F)F)cc1,-10.1%
